# Assay results taken from PubChem BioAssay AID720708 (National Center for Advancing Translational Sciences (NCATS), 2013).
# About 660 (0.18%) of roughly 360,000 compounds were called active. The inconclusive results got no clear call from the source; some entries with a clear call stand among them for comparison. Calls come from the whole dose curve; as a rule, active = well fitted inhibition curve with a large enough effect; inconclusive = small, poorly fitted or top-dose-only effect; inactive = no such curve, though single readings can be large or run the other way. Potencies of inconclusive entries are left out as doubtful fits.
# Target: Rap guanine nucleotide exchange factor 4 (Homo sapiens) (UniProt Q8WZA2)
# Assay: qHTS for Antagonist of cAMP-regulated guanine nucleotide exchange factor 2 (EPAC2): primary screen; note: nearly all actives have a fitted effect of over 45% in size
# Details: EPAC2 GEF exchange of Rap1B-BODIPY-GDP, fluorescence; series mostly up to 114 µM
# Potency is the fitted concentration of half-maximal effect; tags give direction and shape of the fitted curve.
# Sequence of UniProt Q8WZA2 (Q8WZA2 whole entry, looked up): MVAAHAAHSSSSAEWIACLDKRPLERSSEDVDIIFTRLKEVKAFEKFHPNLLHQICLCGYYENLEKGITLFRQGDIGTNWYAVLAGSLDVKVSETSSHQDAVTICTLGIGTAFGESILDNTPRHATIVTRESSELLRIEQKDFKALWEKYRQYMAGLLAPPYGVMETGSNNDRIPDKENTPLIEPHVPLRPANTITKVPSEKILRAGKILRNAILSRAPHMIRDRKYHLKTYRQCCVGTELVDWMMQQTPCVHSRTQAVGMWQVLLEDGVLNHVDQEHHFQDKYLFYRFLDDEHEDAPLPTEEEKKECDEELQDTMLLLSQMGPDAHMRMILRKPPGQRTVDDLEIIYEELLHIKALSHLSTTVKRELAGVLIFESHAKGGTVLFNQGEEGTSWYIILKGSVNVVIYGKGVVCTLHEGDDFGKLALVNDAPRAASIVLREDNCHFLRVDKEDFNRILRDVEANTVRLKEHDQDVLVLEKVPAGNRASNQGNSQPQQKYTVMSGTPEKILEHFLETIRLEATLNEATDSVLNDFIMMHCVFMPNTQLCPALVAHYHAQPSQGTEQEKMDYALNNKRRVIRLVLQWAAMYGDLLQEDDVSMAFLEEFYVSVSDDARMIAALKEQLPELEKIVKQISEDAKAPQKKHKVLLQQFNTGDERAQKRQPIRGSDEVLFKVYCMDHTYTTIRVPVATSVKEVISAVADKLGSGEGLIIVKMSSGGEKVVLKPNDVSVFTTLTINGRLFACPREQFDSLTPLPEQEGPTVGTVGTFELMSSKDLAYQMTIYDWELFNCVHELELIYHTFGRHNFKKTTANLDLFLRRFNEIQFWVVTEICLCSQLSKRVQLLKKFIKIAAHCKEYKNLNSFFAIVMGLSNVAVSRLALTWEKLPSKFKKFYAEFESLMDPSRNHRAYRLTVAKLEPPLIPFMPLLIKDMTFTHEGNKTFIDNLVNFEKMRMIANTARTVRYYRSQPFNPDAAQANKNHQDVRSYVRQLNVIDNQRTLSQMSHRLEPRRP
row,Compound,Potency
1,CC(=O)NC(c1ccco1)c1cc(Cl)c2cccnc2c1O (centres undefined),"inconclusive [inhibitor, full curve]"
2,Cc1ccc(C2=NNC(=Nc3ccc(F)cc3)SC2)cc1,"inconclusive [inhibitor, single point]"
3,Cc1cccc(C)c1NC(=O)C(c1cc2ccccc2o1)N1CCN(C)CC1 (centres undefined),"inconclusive [inhibitor, single point]"
4,O=C(CS(=O)(=O)c1ccccc1)c1cc2cc(F)ccc2oc1=O,active: 50.1 µM
5,CCOc1ccccc1NC(=O)c1ccccc1-c1ccccc1,"inconclusive [inhibitor, full curve]"
6,CCCCCc1c(-c2cccc(F)c2)ncn1CCc1ccccc1OC,"inconclusive [inhibitor, partial curve]"
7,CCOc1ccc(/C(O)=C2/C(=O)C(=O)N(c3ncccn3)C2c2ccc(Cl)cc2)cc1 (centres undefined),inactive
8,CCCC(=O)Nc1ccc(C)c(O)c1,inactive
9,CN(Cc1ccc(F)cc1)C(=O)c1sccc1-c1ccccc1,"inconclusive [inhibitor, partial curve]"
10,Cc1ccc(S(=O)(=O)N2CCOCC2)cc1NC(=O)COC(=O)Cc1cccs1,inactive
11,Cc1ccc(NC(=O)c2cc(C(C)(C)C)nn2Cc2ccccc2)cc1,"inconclusive [inhibitor, single point]"
12,CC1(C)CC(=Cc2cc(O)ccc2[N+](=O)[O-])C(=O)c2ccccc21,"inconclusive [inhibitor, partial curve]"
13,COc1ccc(CNC(=O)c2sc(=O)n(Cc3ccc(C)cc3)c2C)cc1,"inconclusive [inhibitor, partial curve]"
14,Cc1ccc2c(c1)N(C(=O)CCC(=O)NCc1cccc(Br)c1)CC(C)O2 (centres undefined),"inconclusive [inhibitor, partial curve]"
15,Cc1ncc(CCl)c2c1OC(C)(C)OC2,inactive
16,Nc1ccc2nn(-c3ccccc3)nc2c1,inactive
17,CCOC(=O)N1CCc2c(sc(NC(=O)c3ccc(S(=O)(=O)N4CCCC4)cc3)c2C#N)C1,inactive
18,CCOC(=O)C1=C(C)N=C2SC=C(C)N2C1c1ccc(OC)cc1 (centres undefined),"inconclusive [inhibitor, partial curve]"
19,C=CCc1cccc(CNc2c(C)cc(C)cc2C)c1O,"inconclusive [inhibitor, full curve]"
20,O=S(=O)(c1cccc2ccccc12)N1CCCCC1,"inconclusive [inhibitor, partial curve]"
21,Cc1ccc(S(=O)(=O)N2[C@@H](c3ccc(Cl)cc3)C(C(=O)O)=CC[C@H]2c2cccc(Cl)c2)cc1,"inconclusive [inhibitor, full curve]"
22,Oc1ccc(NCc2cccc(OCc3ccccc3)c2)cc1,"inconclusive [inhibitor, partial curve]"
23,O=C(Nc1ccc(CN2CCOCC2)cc1)c1ccc(Cl)cc1Cl,"inconclusive [inhibitor, single point]"

row,Compound,Potency
1,Cc1cc2c(cc1S(=O)(=O)NCc1ccccc1Cl)OCCN2C,"inconclusive [inhibitor, single point]"
2,CCOC(=O)/C=C/c1cc(F)ccc1O,"inconclusive [inhibitor, single point]"
3,CCC(C(=O)OC(C)C)c1ccc2ccccc2c1 (centres undefined),"inconclusive [inhibitor, partial curve]"
4,O=C(Nc1ccccc1N1CCOCC1)C1(c2ccc(Cl)cc2)CCC1,"inconclusive [inhibitor, partial curve]"
5,Cc1c(CCC(=O)O)c(=O)oc2c(C)c3occ(-c4ccc(Cl)cc4)c3cc12,inactive
6,CCOC(=O)c1c(S(=O)(=O)N2CCN(C3CCCCC3)CC2)c(C)n(C)c1C,inactive
7,COCCNC(=O)C1=C(N)C(C(=O)Nc2ccc(C)c(S(=O)(=O)N3CCCCC3)c2)SC1=Nc1ccc(C)cc1C (centres undefined),"inconclusive [inhibitor, partial curve]"
8,COC(=O)C(NC(=O)c1ccc(F)cc1)(Nc1ncc(S(=O)(=O)c2ccc([N+](=O)[O-])cc2)s1)C(F)(F)F (centres undefined),inactive
9,CCOC(=O)c1cc(-c2ccccc2C)nn1Cc1cc(C)no1,"inconclusive [inhibitor, partial curve]"
10,CCC(=O)N(CCc1ccccc1)Cc1cc2cc3c(cc2[nH]c1=O)OCO3,inactive
11,Cc1ccc(NCC(=O)N/N=C/c2ccc(-c3cccc(C(F)(F)F)c3)o2)cc1,"inconclusive [inhibitor, partial curve]"
12,CC1=C/C(=C\c2ccc(Br)o2)C(=O)O1,"inconclusive [inhibitor, partial curve]"
13,COc1cc(/C=C2\C(=O)ON=C2c2ccccc2)cc(OC)c1OC,inactive
14,Cc1ccc(-n2cccn2)c(CN2CCCC(C(=O)c3sccc3C)C2)c1 (centres undefined),"inconclusive [inhibitor, partial curve]"
15,O=C1CCC(C(=O)NCc2ccc3c(c2)OCO3)N1 (centres undefined),"inconclusive [inhibitor, partial curve, poor fit]"
16,COc1ccc(Cc2c(-c3cccc(Cl)c3)nc3ccc(Cl)cn23)c(C)c1,"inconclusive [inhibitor, partial curve]"
17,Clc1ccc(-c2noc(CN3CCOCC3)n2)cc1,inactive
18,O=C1c2ccccc2C(=O)c2c1cccc2-n1nnc2ccccc21,inactive
19,CCOc1cc(S(=O)(=O)NCc2ccccc2)ccc1Br,"inconclusive [inhibitor, partial curve]"
20,CCc1cc2ccc(C)cc2nc1SCC(=O)Nc1cc(OC)c(OC)cc1C(=O)O,"inconclusive [inhibitor, full curve]"
21,Cc1ccc(CC2(C)C(=O)Nc3c(Cl)cccc32)cc1 (centres undefined),"inconclusive [inhibitor, full curve, poor fit]"
22,COc1cc(C(=O)Nc2scc(-c3ccccc3)c2C(=O)O)cc(OC)c1OC,"inconclusive [inhibitor, partial curve]"
23,CCCCCCCCCCCCCCCC[n+]1cccc2ccccc21,"inconclusive [inhibitor, single point]"

row,Compound,Potency
1,Cc1nc2ccc(NC(=O)Cc3ccccc3F)cc2s1,"inconclusive [inhibitor, single point]"
2,COc1ccc(Cn2c(=O)[nH]c3cc(C(=O)N4CCN(Cc5ccccc5)CC4)ccc3c2=O)cc1,inactive
3,CC(C)N1CCc2c(sc(NC(=O)c3ccc(S(=O)(=O)N4CCCCC4C)cc3)c2C(N)=O)C1 (centres undefined),"inconclusive [inhibitor, single point]"
4,COc1ccc(C2C(C#N)=C(N)Oc3cccc(O)c32)cc1 (centres undefined),"inconclusive [inhibitor, single point]"
5,COCCNC(=S)N/N=C(\C)c1ccc(Cl)c(Cl)c1Cl,inactive
6,O=C(CNC(c1ccccc1)c1ccccc1)NCc1ccccc1Cl,"inconclusive [inhibitor, partial curve]"
7,O=C1CCCC(O)=C1C(C#Cc1ccccc1)C1=C(O)CCCC1=O,inactive
8,Cc1ccc(S(=O)(=O)NC(=O)NC2=NC(C)(C)N(c3ccc(Cl)c(Cl)c3)C(N)=N2)cc1,"inconclusive [inhibitor, partial curve]"
9,COc1ccc(C(=O)N/N=C(\C)c2ccc(NC(=O)Cc3ccccc3)cc2)c(OC)c1,inactive
10,COC(=O)c1ccc(N2C(c3ccsc3)=Cc3cc4c(cc3C2CC(=O)c2ccco2)OCO4)cc1 (centres undefined),"inconclusive [inhibitor, partial curve]"
11,COc1ccc(NC(=O)Cn2nnc(-c3ccccc3)c2COc2ccc(C(C)=O)cc2)cn1,"inconclusive [inhibitor, full curve, poor fit]"
12,C=CCOc1ccccc1C1C2=C(CC(C)(C)CC2=O)Nc2c1c(=O)n(C)c(=O)n2C (centres undefined),inactive
13,c1ccc(C(c2ccccc2)c2ccn[nH]2)cc1,"inconclusive [inhibitor, full curve]"
14,C=CCOc1c(Br)cc(/C=N/O)cc1OCC,"inconclusive [inhibitor, partial curve]"
15,CCC1=Nc2cc(C(=O)NCCN3CCOCC3)ccc2Sc2ccc(Br)cc21,"inconclusive [inhibitor, partial curve]"
16,CCCN1C(=O)c2ccccc2NC1c1ccc(OC)c(CSc2ccccn2)c1 (centres undefined),active: 14.1 µM
17,COc1cc(OC)cc(C(=O)NCC(=O)Nc2ccc(-c3ccccc3)cc2)c1,"inconclusive [inhibitor, single point]"
18,CCN(Cc1ccccc1)c1cc2c(c3c1ccn3C)C1CCC2O1 (centres undefined),"inconclusive [inhibitor, partial curve]"
19,Cc1ccc(Sc2c(CO)c(-c3ccccc3)nn2C)cc1,"inconclusive [inhibitor, partial curve]"
20,COc1cc(NC(=O)C2CCCN(S(=O)(=O)c3ccc4c(c3)CCCN4C(C)=O)C2)cc(OC)c1 (centres undefined),"inconclusive [inhibitor, single point]"
21,CC1CCCCC1NC(=S)Nc1ccc(SC(F)F)cc1 (centres undefined),inactive
22,Cn1ccc2c(N(Cc3ccccc3)Cc3ccccc3)cc3c(c21)C1CCC3O1 (centres undefined),"inconclusive [inhibitor, single point]"
23,CC(=O)Nc1ccc(S(=O)(=O)Nc2nc3ccccc3nc2Cl)cc1,"inconclusive [inhibitor, partial curve]"
